# Results published in PMC7819943, “Rice protein-binding microarrays: a tool to detect cis-acting elements near promoter regions in rice”.
# The other results are listed elsewhere or left out.
# Target: T1, OsWOX13 (Oryza sativa, UniProt Q5QMM3 1-267)
# T1 sequence: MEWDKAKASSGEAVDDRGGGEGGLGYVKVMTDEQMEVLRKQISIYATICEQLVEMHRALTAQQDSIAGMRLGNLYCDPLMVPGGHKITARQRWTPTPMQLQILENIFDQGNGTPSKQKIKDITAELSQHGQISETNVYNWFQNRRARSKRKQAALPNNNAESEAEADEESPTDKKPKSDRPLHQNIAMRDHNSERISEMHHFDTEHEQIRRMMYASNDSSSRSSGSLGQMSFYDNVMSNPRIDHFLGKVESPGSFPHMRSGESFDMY
# Assay: protein-binding microarray (RPBM); PBS, 2% BSA, 51.3 ng/ul salmon testes DNA, 50 uM zinc acetate, 200 nM TF, 25 C, 1 h; high values mean tight binding
# Details: protein: recombinant; tags: N-terminal polyhistidine and DsRed monomer fusion (pET32a); label: CyDye5-dUTP incorporated in the synthesized complementary strand; 3' TTTTT single-stranded linker to array surface; dsDNA, one strand shown
# Summary of the method: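 Binding signal is reported as fluorescence intensity per feature (arbitrary units) from an Axon 4000B scanner. Incubation used 200 nM of each Ni–NTA-purified, N-terminally polyhistidine- and DsRed-fused transcription factor from E. coli BL21-CodonPlus on a double-stranded custom Agilent array for 1 h at 25 °C, with 50 µM zinc acetate in the buffer, followed by washing.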
row,Sequence,binding signal
1,GTCAGTTTTATTGATGATTATAGTAAATTTACTTGGGTTTCGGAGTCACCTAGTGCAG,10400 fluorescence intensity (a.u.)
2,TTTCGTCATTATTTATTTTATTGATCTTTAATTAGTACATCGGAGTCACCTAGTGCAG,7290 fluorescence intensity (a.u.)
3,AACCTAATTACTCATTGTACCCTTTGCATTAATCATGCATCGGAGTCACCTAGTGCAG,20100 fluorescence intensity (a.u.)
4,GCTTGACGAGCAGGCAGCAAGAGGATTCGTTCTTCTTCTGCGGAGTCACCTAGTGCAG,6260 fluorescence intensity (a.u.)
5,GATTAGATTGATCATTGATCGATCAGTGCCATTAATTGAGCGGAGTCACCTAGTGCAG,30900 fluorescence intensity (a.u.)
6,CGATTGATGTACCAGTAACAAAGGATTATTACTGTTTACCCGGAGTCACCTAGTGCAG,5280 fluorescence intensity (a.u.)
7,ATGAACATGCAATGATTTATTAACAAATCAAAAGCTAGGACGGAGTCACCTAGTGCAG,17700 fluorescence intensity (a.u.)
8,AGTAATTTATTCCTTATTGGTTTTCACAACTCAAATAATTCGGAGTCACCTAGTGCAG,11400 fluorescence intensity (a.u.)
9,GCCTAATTAGTTCATGATTAGCAACAAGTGCTACAGTAACCGGAGTCACCTAGTGCAG,49300 fluorescence intensity (a.u.)
10,TTTTCCCGGTCAACTAGTAATTGATTAGTAACTCGTACAACGGAGTCACCTAGTGCAG,20500 fluorescence intensity (a.u.)
11,TTAACGGTTGGTAATTAGCTACGTGGATCAACGACGATACCGGAGTCACCTAGTGCAG,7660 fluorescence intensity (a.u.)
12,TAAATTGACAAATTCAACCTAGGCCTGGACTTATTTGGCGCGGAGTCACCTAGTGCAG,57500 fluorescence intensity (a.u.)
13,ACAAAGATGATGGATTTGATGTCGTCCATGGCGAGCGGGACGGAGTCACCTAGTGCAG,4510 fluorescence intensity (a.u.)
14,GGCTGACAGTGATAGAACAAATCGAAGTCAACCTTGATTTCGGAGTCACCTAGTGCAG,23700 fluorescence intensity (a.u.)
15,CCTAGTAATTGCTGATTGCTGTCGCCTTAATTTCAAATTGCGGAGTCACCTAGTGCAG,26400 fluorescence intensity (a.u.)
16,TATCAAGTCAATCAACCAAATGTCCATTCATACAACTATCCGGAGTCACCTAGTGCAG,15300 fluorescence intensity (a.u.)
17,AAGTAAATTTATATATATGATCAAAGTAACATACATATACCGGAGTCACCTAGTGCAG,12400 fluorescence intensity (a.u.)
18,GATGACATTGATGAGATCAGGCAGTATAGGGATGCACGGTCGGAGTCACCTAGTGCAG,8940 fluorescence intensity (a.u.)
19,CATGGTCGTGATTGTATCTGTAGTTTCTGTACAGAGTAGCCGGAGTCACCTAGTGCAG,7690 fluorescence intensity (a.u.)
20,CTAAATCAATTCTAAATCGGTAGTTTTATGATAATTTTGTCGGAGTCACCTAGTGCAG,5000 fluorescence intensity (a.u.)
21,GAAATTTGTGATATATATATATATATCACTAATTAATAGTCGGAGTCACCTAGTGCAG,4970 fluorescence intensity (a.u.)

row,Sequence,binding signal
1,TTGTTGATTTGATAACAAAATGAACAAGCTGCTTTAAATTCGGAGTCACCTAGTGCAG,3670 fluorescence intensity (a.u.)
2,TAAAATTAAATCGTAACCGATATACAATTACAATATAACTCGGAGTCACCTAGTGCAG,4960 fluorescence intensity (a.u.)
3,CTATGATTGGTCAAGTGCTGTTGCTATTTCTCTGCTGATACGGAGTCACCTAGTGCAG,40900 fluorescence intensity (a.u.)
4,TGCCATTAATGATTTCAAATTTGATCAATATATCCCTCCACGGAGTCACCTAGTGCAG,17900 fluorescence intensity (a.u.)
5,CATCATACCTCGTAATTACCCTGGTCATTGTGTCTATGGACGGAGTCACCTAGTGCAG,3910 fluorescence intensity (a.u.)
6,CGGATTGATAGTCACTAATACCTATGTTTTGTGATGGGGACGGAGTCACCTAGTGCAG,42000 fluorescence intensity (a.u.)
7,CCTCCTTGATGGGATGGACGGGAGGGTGCTTTGAATATTTCGGAGTCACCTAGTGCAG,6960 fluorescence intensity (a.u.)
8,AGTGATTTTGCTCATCAAGTAGTGGTTGTGACTTGTGAGGCGGAGTCACCTAGTGCAG,19300 fluorescence intensity (a.u.)
9,TGAGTGATCGTGTAATTCGCACGTAATTACCGAAGAAAGGCGGAGTCACCTAGTGCAG,3660 fluorescence intensity (a.u.)
10,TAAATAAATTGCTAAATATATTATAGAGAGTTTGATCCTGCGGAGTCACCTAGTGCAG,19700 fluorescence intensity (a.u.)
11,CCTGACATTACTGTCACTACACACCATGCGTATGATGCAACGGAGTCACCTAGTGCAG,4990 fluorescence intensity (a.u.)
12,CCCTGACTATATTCATTATTACATCTCACATAGCGATACGCGGAGTCACCTAGTGCAG,4660 fluorescence intensity (a.u.)
13,ATCATATCAGTAAATTAGTTGGAAACCGAAGTCATAAACTCGGAGTCACCTAGTGCAG,3290 fluorescence intensity (a.u.)
14,ACATTAAACCTATAGTTTTATGATAAGTTTGGTGTTAAATCGGAGTCACCTAGTGCAG,16900 fluorescence intensity (a.u.)
15,TTCGCTTTGATGGACGGCTCAGATCGGCTCCTAATCCATCCGGAGTCACCTAGTGCAG,3310 fluorescence intensity (a.u.)
16,GGGCATAGTTACTATTGATTAGGATCTCACTAATGCAGATCGGAGTCACCTAGTGCAG,6120 fluorescence intensity (a.u.)
17,CATTTAAACAGATAAATATGTCGTTTTCTAATTGTAATTGCGGAGTCACCTAGTGCAG,10400 fluorescence intensity (a.u.)
18,GAACAATAGATTAATATATAATTAAATAAATATTAGTCAACGGAGTCACCTAGTGCAG,25100 fluorescence intensity (a.u.)
19,CCTAACTGAGAGCCCTCCACTCGGAGCAACTTATAGTTCACGGAGTCACCTAGTGCAG,3390 fluorescence intensity (a.u.)
20,TGAAATTAATAGGATGCCACGTCCTCATCCTAGGTAAAATCGGAGTCACCTAGTGCAG,4770 fluorescence intensity (a.u.)
21,CTGTTTGGCCATAATTGGAAACCGAAACTGCGCACAGCAGCGGAGTCACCTAGTGCAG,6590 fluorescence intensity (a.u.)
